# Reference: the supplement of paper PMC8728848
# The other results are listed elsewhere or left out.
# Key:
# Experiment in all cases: glycan array binding signal (z-score within array); higher = stronger binding
# Settings in all cases: glycan notation: IUPAC condensed, linker removed
# [1] = biological target: Neu5Ac(a2-3)Gal
# How it was run: (§1)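 Columns mapping to the same glycan were averaged after glycan names were converted to IUPAC-condensed notation. The data come from 3228 arrays in the Consortium for Functional Glycomics database, limited to those with an available protein sequence. Binding is reported as a within-array Z-score averaged across arrays of one protein sequence and across linkers.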
# [2] = biological target: Neu5Ac(a2-3)Gal(b1-3)GalNAc
# How it was run: as §1
# [3] = biological target: Neu5Ac(a2-3)Gal(b1-3)GalNAc(b1-3)Gal(a1-4)Gal(b1-4)Glc
# How it was run: as §1
# [4] = biological target: Neu5Ac(a2-3)Gal(b1-3)GalNAc(b1-4)Gal(b1-4)Glc
# How it was run: as §1
# [5] = biological target: Neu5Ac(a2-3)Gal(b1-3)GalNAc(b1-4)[Neu5Ac(a2-3)]Gal(b1-4)Glc
# How it was run: as §1
# [6] = biological target: Neu5Ac(a2-3)Gal(b1-3)GalNAc(b1-4)[Neu5Ac(a2-8)Neu5Ac(a2-3)]Gal(b1-4)Glc
# How it was run: as §1
# [7] = biological target: Neu5Ac(a2-3)Gal(b1-3)GalNAc6S
# How it was run: as §1
# [8] = biological target: Neu5Ac(a2-3)Gal(b1-3)GlcNAc
# How it was run: as §1
# [9] = biological target: Neu5Ac(a2-3)Gal(b1-3)GlcNAc(b1-2)Man
# How it was run: as §1
# [10] = biological target: Neu5Ac(a2-3)Gal(b1-3)GlcNAc(b1-2)Man(a1-3)[GlcNAc(b1-4)][Neu5Ac(a2-3)Gal(b1-3)GlcNAc(b1-2)Man(a1-6)]Man(b1-4)GlcNAc(b1-4)GlcNAc
# How it was run: as §1
# [11] = biological target: Neu5Ac(a2-3)Gal(b1-3)GlcNAc(b1-2)Man(a1-3)[Neu5Ac(a2-3)Gal(b1-3)GlcNAc(b1-2)Man(a1-6)]Man(b1-4)GlcNAc(b1-4)GlcNAc
# How it was run: as §1
# [12] = biological target: Neu5Ac(a2-3)Gal(b1-3)GlcNAc(b1-2)[Neu5Ac(a2-3)Gal(b1-3)GlcNAc(b1-4)]Man(a1-6)[Neu5Ac(a2-3)Gal(b1-3)GlcNAc(b1-2)Man(a1-3)]Man(b1-4)GlcNAc(b1-4)GlcNAc
# How it was run: as §1
# [13] = biological target: Neu5Ac(a2-3)Gal(b1-3)GlcNAc(b1-3)Gal(b1-3)GlcNAc
# How it was run: as §1
# [14] = biological target: Neu5Ac(a2-3)Gal(b1-3)GlcNAc(b1-3)Gal(b1-4)GlcNAc
# How it was run: as §1
# [15] = biological target: Neu5Ac(a2-3)Gal(b1-3)GlcNAc(b1-3)GalNAc
# How it was run: as §1
# [16] = biological target: Neu5Ac(a2-3)Gal(b1-3)GlcNAc(b1-6)GalNAc
# How it was run: as §1
# [17] = biological target: Neu5Ac(a2-3)Gal(b1-3)GlcNAc6S
# How it was run: as §1
# [18] = biological target: Neu5Ac(a2-3)Gal(b1-3)[Fuc(a1-4)]GlcNAc
# How it was run: as §1
# [19] = biological target: Neu5Ac(a2-3)Gal(b1-3)[Fuc(a1-4)]GlcNAc(b1-3)Gal(b1-3)[Fuc(a1-4)]GlcNAc
# How it was run: as §1
# [20] = biological target: Neu5Ac(a2-3)Gal(b1-3)[Fuc(a1-4)]GlcNAc(b1-3)Gal(b1-4)[Fuc(a1-3)]GlcNAc
# How it was run: as §1
# [21] = biological target: Neu5Ac(a2-3)Gal(b1-3)[GlcNAc(b1-6)]GalNAc
# How it was run: as §1
# [22] = biological target: Neu5Ac(a2-3)Gal(b1-3)[Neu5Ac(a2-6)]GalNAc
# How it was run: as §1
# [23] = biological target: Neu5Ac(a2-3)Gal(b1-3)[Neu5Ac(a2-6)]GlcNAc(b1-3)[Fuc(a1-3)[Gal(b1-4)]GlcNAc(b1-6)]Gal(b1-4)Glc
# How it was run: as §1
# [24] = biological target: Neu5Ac(a2-3)Gal(b1-3)]Neu5Ac(a2-3)Gal(b1-4)]GlcNAc
# How it was run: as §1
# [25] = biological target: Neu5Ac(a2-3)Gal(b1-4)Glc
# How it was run: as §1
# [26] = biological target: Neu5Ac(a2-3)Gal(b1-4)GlcNAc
# How it was run: as §1
# [27] = biological target: Neu5Ac(a2-3)Gal(b1-4)GlcNAc(b1-2)Man
# How it was run: as §1
# [28] = biological target: Neu5Ac(a2-3)Gal(b1-4)GlcNAc(b1-2)Man(a1-3)[GlcNAc(b1-4)][Neu5Ac(a2-3)Gal(b1-4)GlcNAc(b1-2)Man(a1-6)]Man(b1-4)GlcNAc(b1-4)GlcNAc
# How it was run: as §1
# [29] = biological target: Neu5Ac(a2-3)Gal(b1-4)GlcNAc(b1-2)Man(a1-3)[Neu5Ac(a2-3)Gal(b1-4)GlcNAc(b1-2)Man(a1-6)]Man(b1-4)GlcNAc(b1-4)GlcNAc
# How it was run: as §1
# [30] = biological target: Neu5Ac(a2-3)Gal(b1-4)GlcNAc(b1-2)Man(a1-3)[Neu5Ac(a2-3)Gal(b1-4)GlcNAc(b1-2)Man(a1-6)]Man(b1-4)GlcNAc(b1-4)[Fuc(a1-6)]GlcNAc
# How it was run: as §1
# [31] = biological target: Neu5Ac(a2-3)Gal(b1-4)GlcNAc(b1-2)Man(a1-3)[Neu5Ac(a2-6)Gal(b1-4)GlcNAc(b1-2)Man(a1-6)]Man(b1-4)GlcNAc(b1-4)GlcNAc
# How it was run: as §1
# [32] = biological target: Neu5Ac(a2-3)Gal(b1-4)GlcNAc(b1-2)[Neu5Ac(a2-3)Gal(b1-4)GlcNAc(b1-4)]Man(a1-3)[GlcNAc(b1-4)][Neu5Ac(a2-3)Gal(b1-4)GlcNAc(b1-2)[Neu5Ac(a2-3)Gal(b1-4)GlcNAc(b1-6)]Man(a1-6)]Man(b1-4)GlcNAc(b1-4)GlcNAc
# How it was run: as §1
# [33] = biological target: Neu5Ac(a2-3)Gal(b1-4)GlcNAc(b1-2)[Neu5Ac(a2-3)Gal(b1-4)GlcNAc(b1-4)]Man(a1-3)[GlcNAc(b1-4)][Neu5Ac(a2-3)Gal(b1-4)GlcNAc(b1-4)Man(a1-6)]Man(b1-4)GlcNAc(b1-4)GlcNAc
# How it was run: as §1
# [34] = biological target: Neu5Ac(a2-3)Gal(b1-4)GlcNAc(b1-2)[Neu5Ac(a2-3)Gal(b1-4)GlcNAc(b1-6)]Man(a1-6)[Neu5Ac(a2-3)Gal(b1-4)GlcNAc(b1-2)Man(a1-3)][GlcNAc(b1-4)]Man(b1-4)GlcNAc(b1-4)GlcNAc
# How it was run: as §1
# [35] = biological target: Neu5Ac(a2-3)Gal(b1-4)GlcNAc(b1-3)Gal
# How it was run: as §1
# [36] = biological target: Neu5Ac(a2-3)Gal(b1-4)GlcNAc(b1-3)Gal(b1-3)GlcNAc
# How it was run: as §1
# [37] = biological target: Neu5Ac(a2-3)Gal(b1-4)GlcNAc(b1-3)Gal(b1-4)GlcNAc
# How it was run: as §1
# [38] = biological target: Neu5Ac(a2-3)Gal(b1-4)GlcNAc(b1-3)Gal(b1-4)GlcNAc(b1-2)Man(a1-3)[Neu5Ac(a2-3)Gal(b1-4)GlcNAc(b1-3)Gal(b1-4)GlcNAc(b1-2)Man(a1-6)]Man(b1-4)GlcNAc(b1-4)GlcNAc
# How it was run: as §1
# [39] = biological target: Neu5Ac(a2-3)Gal(b1-4)GlcNAc(b1-3)Gal(b1-4)GlcNAc(b1-3)Gal(b1-4)GlcNAc
# How it was run: as §1
# [40] = biological target: Neu5Ac(a2-3)Gal(b1-4)GlcNAc(b1-3)Gal(b1-4)GlcNAc(b1-3)Gal(b1-4)GlcNAc(b1-2)Man(a1-3)[Neu5Ac(a2-3)Gal(b1-4)GlcNAc(b1-3)Gal(b1-4)GlcNAc(b1-3)Gal(b1-4)GlcNAc(b1-2)Man(a1-6)]GalNAc
# How it was run: as §1
# [41] = biological target: Neu5Ac(a2-3)Gal(b1-4)GlcNAc(b1-3)Gal(b1-4)GlcNAc(b1-3)GalNAc
# How it was run: as §1
# [42] = biological target: Neu5Ac(a2-3)Gal(b1-4)GlcNAc(b1-3)Gal(b1-4)GlcNAc(b1-3)[Neu5Ac(a2-3)Gal(b1-4)GlcNAc(b1-3)Gal(b1-4)GlcNAc(b1-6)]GalNAc
# How it was run: as §1
# [43] = biological target: Neu5Ac(a2-3)Gal(b1-4)GlcNAc(b1-3)Gal(b1-4)GlcNAc(b1-6)[Gal(b1-3)]GalNAc
# How it was run: as §1
# [44] = biological target: Neu5Ac(a2-3)Gal(b1-4)GlcNAc(b1-3)Gal(b1-4)[Fuc(a1-3)]GlcNAc
# How it was run: as §1
# [45] = biological target: Neu5Ac(a2-3)Gal(b1-4)GlcNAc(b1-3)GalNAc
# How it was run: as §1
binder,measurement,setting,value
"Dectin2 (Homo sapiens), Q6EIG7 (protein) MMQEQQPQSTEKRGWLSLRLWSVAGISIALLSACFIVSCVVTYHFTYGETGKRLSELHSYHSSLTCFSEGTKVPAWGCCPASWKSFGSSCYFISSEEKVWSKSEQNCVEMGAHLVVFNTEAEQNFIVQQLNESFSYFLGLSDPQGNNNWQWIDKTPYEKNVRFWHLGEPNHSAEQCASIVFWKPTGWGWNDVICETRRNSICEMNKIYL",glycan array binding signal (z-score),[1],-0.177
same,glycan array binding signal (z-score),[2],0.09
same,glycan array binding signal (z-score),[3],-0.15
same,glycan array binding signal (z-score),[4],-0.106
same,glycan array binding signal (z-score),[5],-0.178
same,glycan array binding signal (z-score),[6],-0.165
same,glycan array binding signal (z-score),[7],-0.146
same,glycan array binding signal (z-score),[8],-0.175
same,glycan array binding signal (z-score),[9],-0.175
same,glycan array binding signal (z-score),[10],-0.116
same,glycan array binding signal (z-score),[11],-0.075
same,glycan array binding signal (z-score),[12],0.073
same,glycan array binding signal (z-score),[13],-0.194
same,glycan array binding signal (z-score),[14],-0.195
same,glycan array binding signal (z-score),[15],-0.184
same,glycan array binding signal (z-score),[16],-0.176
same,glycan array binding signal (z-score),[17],-0.088
same,glycan array binding signal (z-score),[18],-0.165
same,glycan array binding signal (z-score),[19],-0.114
same,glycan array binding signal (z-score),[20],-0.071
same,glycan array binding signal (z-score),[21],-0.193
same,glycan array binding signal (z-score),[22],-0.135
same,glycan array binding signal (z-score),[23],-0.178
same,glycan array binding signal (z-score),[24],-0.206
same,glycan array binding signal (z-score),[25],-0.156
same,glycan array binding signal (z-score),[26],-0.183
same,glycan array binding signal (z-score),[27],-0.027
same,glycan array binding signal (z-score),[28],-0.193
same,glycan array binding signal (z-score),[29],-0.185
same,glycan array binding signal (z-score),[30],-0.142
same,glycan array binding signal (z-score),[31],0.195
same,glycan array binding signal (z-score),[32],-0.203
same,glycan array binding signal (z-score),[33],-0.201
same,glycan array binding signal (z-score),[34],-0.139
same,glycan array binding signal (z-score),[35],-0.206
same,glycan array binding signal (z-score),[36],-0.196
same,glycan array binding signal (z-score),[37],-0.189
same,glycan array binding signal (z-score),[38],0.038
same,glycan array binding signal (z-score),[39],-0.191
same,glycan array binding signal (z-score),[40],0.638
same,glycan array binding signal (z-score),[41],-0.182
same,glycan array binding signal (z-score),[42],-0.122
same,glycan array binding signal (z-score),[43],-0.152
same,glycan array binding signal (z-score),[44],-0.177
same,glycan array binding signal (z-score),[45],-0.157
